This passage reports inhibition results from ChEMBL document CHEMBL5606460, “ASAP - DENV-2 NS2B-NS3 protease fluorescence single point” (2024).

The inhibition is the change of the read-out against control, counted positive when it falls.

For the experiment, the target named is Genome polyprotein (dengue virus type 2) (UniProt P29990).
Setting [1] is: Thailand/16681/1984, Concentration 25.0 uM, Number of replicates 1.0.

The whole screen tested about 2,000 compounds, of which about 110 (5.5%) showed an effect of 50% or more. Some of the results follow.

Turning to `CNC(=O)c1cc(Cl)cc(C)c1NS(=O)(=O)c1ccc(Oc2ccccc2Cl)cc1`, the inhibition was -4.39% (Thailand/16681/1984, Concentration 49.5 uM, Number of replicates 2.0, Standard deviation 1.9936078061389018 %); -5.53% (Thailand/16681/1984, Concentration 99.01 uM, Number of replicates 2.0, Standard deviation 1.8430300976388188 %); -7.09% (Thailand/16681/1984, Concentration 198.0 uM, Number of replicates 2.0, Standard deviation 2.010624849106266 %).
`c1cnc2c(C3CCN(Cc4cscn4)CC3)c[nH]c2c1`: the inhibition was -3.42% (Thailand/16681/1984, Concentration 49.5 uM, Number of replicates 2.0, Standard deviation 1.714470745737797 %); -3.54% (Thailand/16681/1984, Concentration 99.01 uM, Number of replicates 2.0, Standard deviation 2.482934234636928 %); -3.14% (Thailand/16681/1984, Concentration 198.0 uM, Number of replicates 2.0, Standard deviation 1.6201369950511377 %).
Regarding `CS(=O)(=O)Nc1ccc(C(=O)Nc2nc3ccccc3s2)cc1`, the inhibition (Thailand/16681/1984, Concentration 49.5 uM, Number of replicates 2.0, Standard deviation 0.9713118875098187 %) was 7.05%; the inhibition (Thailand/16681/1984, Concentration 99.01 uM, Number of replicates 2.0, Standard deviation 1.8224459140008862 %) is 14.3%; the inhibition (Thailand/16681/1984, Concentration 198.0 uM, Number of replicates 2.0, Standard deviation 1.5774075085064292 %) turned out to be 25.1%.
As for `Cc1c(NC(=O)C2CCN(c3ccc(C=O)cc3)CC2)c(=O)n(-c2ccccc2)n1C`, the inhibition under setting [1] was 15%.
For `COc1cc(CC(=O)NCc2ccccn2)nc(N2CCNCC2)n1`, the inhibition is, setting by setting: (Thailand/16681/1984, Concentration 49.5 uM, Number of replicates 2.0, Standard deviation 0.7207981006316144 %) -4.58%; (Thailand/16681/1984, Concentration 99.01 uM, Number of replicates 2.0, Standard deviation 0.19323318517880653 %) -4.36%; (Thailand/16681/1984, Concentration 198.0 uM, Number of replicates 2.0, Standard deviation 1.2378404652977986 %) -5.06%.
As to `COc1ccc([C@@H](C)NC(=O)C2CCN(c3ccc(C=O)cc3)CC2)cc1OC`, under setting [1], the inhibition worked out at 12.5%.
As to `Cc1cc(CO)c2cccc(Cc3ccccc3C(=O)NCc3sccc3C)c2n1`, the inhibition runs as follows: (Thailand/16681/1984, Concentration 49.95 uM, Number of replicates 2.0, Standard deviation 0.661878407993628 %) 1.17%; (Thailand/16681/1984, Concentration 99.9 uM, Number of replicates 2.0, Standard deviation 2.367239112425795 %) 7.83%.
On to `CNC(=O)C[C@H]1CCN1S(=O)(=O)c1ccc(Oc2ccccc2Cl)cc1`, for which the inhibition runs as follows: (Thailand/16681/1984, Concentration 49.5 uM, Number of replicates 2.0, Standard deviation 0.3861860095213186 %) -3.15%; (Thailand/16681/1984, Concentration 99.01 uM, Number of replicates 2.0, Standard deviation 0.3537656421223746 %) -2.95%; (Thailand/16681/1984, Concentration 198.0 uM, Number of replicates 2.0, Standard deviation 0.4333866866371539 %) -1.59%.
In the case of `COc1cc(-c2ccccc2C(=O)Nc2cnn(C)c2)ccn1`, the inhibition (Thailand/16681/1984, Concentration 49.5 uM, Number of replicates 2.0, Standard deviation 4.323163758485895 %) was -4.69%; the inhibition (Thailand/16681/1984, Concentration 99.01 uM, Number of replicates 2.0, Standard deviation 4.48735902944615 %) is -4.18%; the inhibition (Thailand/16681/1984, Concentration 198.0 uM, Number of replicates 2.0, Standard deviation 2.9236410702171507 %) was -5.24%.
Consider `CC(C)(NC(=O)C1CCN(c2ccc(C=O)cc2)CC1)c1ccc(Cl)cc1`, for which the inhibition under setting [1] stood at 14.1%.
As for `OCCOc1cc(COc2cccnc2F)nc(N2CCNCC2)n1`, the inhibition was -4.61% (Thailand/16681/1984, Concentration 49.5 uM, Number of replicates 2.0, Standard deviation 0.8209703699487908 %); -4.32% (Thailand/16681/1984, Concentration 99.01 uM, Number of replicates 2.0, Standard deviation 1.5262481464973596 %); -3.89% (Thailand/16681/1984, Concentration 198.0 uM, Number of replicates 2.0, Standard deviation 1.6374908756318014 %).
Turning to `O=C(Nc1cccc(B(O)O)c1)[C@H]1CCn2ccnc2C1`, the inhibition by setting is: (Thailand/16681/1984, Concentration 49.5 uM, Number of replicates 2.0, Standard deviation 3.550528405933761 %) -1.16%; (Thailand/16681/1984, Concentration 99.01 uM, Number of replicates 2.0, Standard deviation 3.6153694779064374 %) -0.272%; (Thailand/16681/1984, Concentration 198.0 uM, Number of replicates 2.0, Standard deviation 3.112374067793055 %) 0.553%.
For the compound `COc1ccc(Cl)c(NC(=O)C2CCN(c3ccc(C=O)cc3)CC2)c1`, the inhibition under setting [1] was determined as 12.9%.
For `COc1cccc2c(N3CCC(C(=O)O)CC3)nccc12`, the inhibition by setting is: (Thailand/16681/1984, Concentration 49.95 uM, Number of replicates 2.0, Standard deviation 4.4972310857728575 %) -5.87%; (Thailand/16681/1984, Concentration 99.9 uM, Number of replicates 2.0, Standard deviation 6.395002295242678 %) -4.4%.
Take `Cc1n[nH]c(CC(=O)N2CCC[C@H](n3cnc(C(N)=O)n3)C2)n1`: the inhibition (Thailand/16681/1984, Concentration 49.5 uM, Number of replicates 2.0, Standard deviation 0.8615620840433298 %) was -1.22%; the inhibition (Thailand/16681/1984, Concentration 99.01 uM, Number of replicates 2.0, Standard deviation 0.2938998370290156 %) was -1.99%; the inhibition (Thailand/16681/1984, Concentration 198.0 uM, Number of replicates 2.0, Standard deviation 1.103757347430939 %) was -0.94%.
`O=Cc1ccc(N2CCC(C(=O)Nc3ccc(C(F)(F)F)cn3)CC2)cc1`: the inhibition under setting [1] is 13.1%.
For the compound `O=Cc1ccc(N2CCC(C(=O)N3CCc4c([nH]c5ccccc45)C3)CC2)cc1`, the inhibition under setting [1] turned out to be 9.27%.
For the compound `Cc1ncc(-c2ccccc2C(=O)Nc2cnn(C)c2)cn1`, the inhibition is, setting by setting: (Thailand/16681/1984, Concentration 49.5 uM, Number of replicates 2.0, Standard deviation 1.8830776326988092 %) 0.863%; (Thailand/16681/1984, Concentration 99.01 uM, Number of replicates 2.0, Standard deviation 1.4139307148727385 %) 1.92%; (Thailand/16681/1984, Concentration 198.0 uM, Number of replicates 2.0, Standard deviation 0.9378300938779764 %) 3%.
As to `O=Cc1ccc(N2CCC(C(=O)Nc3nc(-c4ccc(Cl)c(Cl)c4)cs3)CC2)cc1`, the inhibition under setting [1] was 14.6%.
Consider `CC[C@H]1CCN(c2nccn(CC)c2=O)C1`, for which the inhibition is, setting by setting: (Thailand/16681/1984, Concentration 49.5 uM, Number of replicates 2.0, Standard deviation 1.2045387230027946 %) 5.49%; (Thailand/16681/1984, Concentration 99.01 uM, Number of replicates 2.0, Standard deviation 1.538920355145433 %) 11.2%; (Thailand/16681/1984, Concentration 198.0 uM, Number of replicates 2.0, Standard deviation 0.5510825197470987 %) 22%.
For `Cc1cc(CO)c2cccc(Cc3ccccc3NC(=O)c3nc(C4CCNCC4)oc3C)c2n1`, the inhibition is 3.36% (Thailand/16681/1984, Concentration 49.95 uM, Number of replicates 2.0, Standard deviation 1.1742415452444355 %) and 69.9% (Thailand/16681/1984, Concentration 99.9 uM, Number of replicates 2.0, Standard deviation 2.967451033370285 %).
For the compound `CNC(=O)C1(C(=O)Nc2ccncc2C)CC1`, the inhibition (Thailand/16681/1984, Concentration 49.5 uM, Number of replicates 2.0, Standard deviation 1.0913332994268976 %) is -3.7%; the inhibition (Thailand/16681/1984, Concentration 99.01 uM, Number of replicates 2.0, Standard deviation 0.634108102390891 %) is -3.75%; the inhibition (Thailand/16681/1984, Concentration 198.0 uM, Number of replicates 2.0, Standard deviation 0.9969322823700151 %) is -3.62%.
`Cc1cc(CO)c2cccc(Cc3cccc(C(=O)N4CC[C@@H](CO)C4)c3)c2n1`: the inhibition runs as follows: (Thailand/16681/1984, Concentration 49.95 uM, Number of replicates 2.0, Standard deviation 1.5846275376108605 %) 1.42%; (Thailand/16681/1984, Concentration 99.9 uM, Number of replicates 2.0, Standard deviation 0.9371220268229934 %) 23.4%.
Turning to `COc1cc(NC(=O)C2CCN(c3ccc(C=O)cc3)CC2)nc(OC)n1`, the inhibition under setting [1] was 9.38%.
Still for that read-out and setting: in the case of `O=Cc1ccc(N2CCC(C(=O)Nc3ncccc3C(F)(F)F)CC2)cc1` it was 12.3%.
Regarding `COc1cc(CS(=O)(=O)Cc2c(F)cccc2Cl)nc(N2CCNCC2)n1`, the inhibition is -0.911% (Thailand/16681/1984, Concentration 50.0 uM, Number of replicates 2.0, Standard deviation 0.3148657868207599 %); -0.723% (Thailand/16681/1984, Concentration 100.0 uM, Number of replicates 2.0, Standard deviation 0.26663335485337786 %); 1.05% (Thailand/16681/1984, Concentration 200.0 uM, Number of replicates 2.0, Standard deviation 0.41891784213075806 %).
For the compound `O=Cc1ccc(N2CCC(C(=O)Nc3ncc(C(F)(F)F)cc3Cl)CC2)cc1`, the inhibition under setting [1] is 11.8%.
As for `Cc1cc(Br)cc(C)c1NC(=O)C1CCN(c2ccc(C=O)cc2)CC1`, the inhibition under setting [1] is 11.3%.
In the case of `Cc1ccc(S(N)(=O)=O)c(NCc2ccc(N3CCN(C)CC3)cc2)c1`, the inhibition is -0.337% (Thailand/16681/1984, Concentration 49.5 uM, Number of replicates 2.0, Standard deviation 0.9591550294519122 %); 1.24% (Thailand/16681/1984, Concentration 99.01 uM, Number of replicates 2.0, Standard deviation 0.6629248720953049 %); 1.03% (Thailand/16681/1984, Concentration 198.0 uM, Number of replicates 2.0, Standard deviation 0.09920698004573132 %).
For the compound `CN(CCO[Si](C)(C)C(C)(C)C)C(=O)C1CCN(c2ccc(C=O)cc2)CC1`, under setting [1], the inhibition came to 11.8%.
With `Cc1cc(CO)c2cccc(C[C@H](NC(=O)c3nc(-c4ccccc4)oc3C(F)(F)F)C(=O)O)c2n1`, the inhibition was 2.42% (Thailand/16681/1984, Concentration 49.95 uM, Number of replicates 2.0, Standard deviation 1.1931156626508872 %) and 8.9% (Thailand/16681/1984, Concentration 99.9 uM, Number of replicates 2.0, Standard deviation 0.9640865689758992 %).
